Measured values: ChEMBL document CHEMBL4888484, “Replenishing the malaria drug discovery pipeline: Screening and hit evaluation of the MMV Hit Generation Library 1 (HGL1) against asexual blood stage Plasmodium falciparum ,using a nano luciferase reporter read-out” (2022)
Among all 150,000 compounds or so, about 540 (0.36%) showed an effect of 50% or more. This is one part of the list.

These molecules were tested on Plasmodium falciparum (assay: Primary screen in NF54 nanoGlo assay, in single point, at 2uM, 72h; a lower Z score goes with more inhibition). Conditions: timepoint 72 hour.
Type: functional, Erythrocyte
With `CCNc1ncc(S(=O)(=O)N[C@H](CC)CO)cc1C(F)(F)F` the “% Inhibition” value was 0% and the Z score was 0.01. For `C[C@H]1CCN(c2ccc(NC(=O)NC3CCC(O)CC3)cc2)C1` (some centres undefined), the “% Inhibition” value was -4% and the Z score was 0.68. In the case of `CCCN(CCC)C(=O)c1nc(Cc2ccccc2)n(-c2ccccc2)n1`, the “% Inhibition” value is reported as -7% and the Z score is reported as 0.9. With `CC[C@H](O)Cn1ncnc1Cn1nc(C)cc1C` the “% Inhibition” value was -3% and the Z score was 0.5. In the case of `O=C(c1ccc(C#Cc2ccccc2)cc1)N1CCN(C/C=C/c2ccccc2)CC1`, the “% Inhibition” value is reported as 7% and the Z score is reported as -0.79. In the case of `CN(C)c1nc(-c2cccc3c2O[C@@H](CN)C3)ncc1F`, the “% Inhibition” value is reported as -6% and the Z score is reported as 1.06. In the case of `CCOCCN1C[C@H](NC(=O)CN2CCCC2=O)[C@@H](c2ccccc2)C1`, the “% Inhibition” value is reported as -7% and the Z score is reported as 1.33. With `COc1ccccc1NC(=O)NC1C2CCC(C2)C1CO` (centres undefined) the “% Inhibition” value was -10% and the Z score was 1.61. For `COCCO[C@H]1CN(C2CCN(C(=O)c3ccc4[nH]ccc4c3)CC2)C12CCCCC2`, the “% Inhibition” value was -6% and the Z score was 1.03. In the case of `CC(C)CO/C(=N/C(=O)c1ccc(F)cc1)NCCN1CCOCC1`, the “% Inhibition” value is reported as -3% and the Z score is reported as 0.41. With `CN(C)c1ncc(C(=O)Nc2ccc3c(c2)OCO3)cn1` the “% Inhibition” value was -6% and the Z score was 0.92. For `Cc1c(-c2ccccc2F)[nH]c2ccc(CNC(=O)c3cc(N)[nH]n3)cc12`, the “% Inhibition” value was -7% and the Z score was 0.86. In the case of `CCOc1ccccc1NC(=O)Cn1nc2ccc(C(=O)Nc3cccc(C)c3)cn2c1=O`, the “% Inhibition” value is reported as -18% and the Z score is reported as 1.55. `CCC(CC)n1ccc(-c2nc(-c3ccncc3)no2)n1` was tested, and the “% Inhibition” value was -4% and the Z score was 0.36. For `O=C([C@@H]1CNc2ccccc2O1)N1CCCCC1`, the “% Inhibition” value was -16% and the Z score was 3.01. In the case of `Cn1c(=O)n(C)c(=O)n(CC(=O)Nc2ccc3c(c2)OCO3)c1=O`, the “% Inhibition” value is reported as -8% and the Z score is reported as 0.8. With `CC(C(C)S(C)(=O)=O)N(C)CC(=O)N(C)Cc1ccco1` (centres undefined) the “% Inhibition” value was -11% and the Z score was 1.48. In the case of `CC(C)[C@@H]1CN(CCc2nnn[nH]2)CCCN1Cc1ccc(F)cc1`, the “% Inhibition” value is reported as -17% and the Z score is reported as 1.55. With `CC(C)(C)n1nnnc1[C@@H]1CC2(CCOCC2)C(=O)N1CCc1nc2ccccc2[nH]1` the “% Inhibition” value was -8% and the Z score was 0.93. For `CCC[C@H](NC)C(=O)NCc1cc2c(nc1OC)CN(C1CCCC1)C2=O`, the “% Inhibition” value was -10% and the Z score was 1.36. `COc1c2ccc(C(=O)N3CC(S(=O)(=O)Cc4ccco4)C3)cc2nn1C` was tested, and the “% Inhibition” value was 5% and the Z score was -0.7. In the case of `CCOc1ccc([C@@H]2c3[nH]c4ccccc4c3CCN2Cc2nccn2CC)cc1`, the “% Inhibition” value is reported as -7% and the Z score is reported as 0.77. `Cc1cc(Cc2ccc(S(=O)(=O)N3CCN(c4cccc(Cl)c4)CC3)cc2)c(=O)[nH]n1` was tested, and the “% Inhibition” value was -20% and the Z score was 2. `O=C(Nc1ccccc1)C(=O)N1CC[C@@]2(CCCN(CC3CCC3)C2=O)C1` was tested, and the “% Inhibition” value was -13% and the Z score was 1.41. For `O=C(CCCc1ccccc1)N1CCC(n2ccnn2)CC1`, the “% Inhibition” value was -5% and the Z score was 0.59. In the case of `CCCS(=O)(=O)N[C@H]1CCN(Cc2ccc(OCC)nc2)C1`, the “% Inhibition” value is reported as 2% and the Z score is reported as -0.3. With `Cc1n[nH]c(C)c1CCCN[C@@H](C)C(=O)NC1CCCC1` the “% Inhibition” value was -12% and the Z score was 1.54. `CNC(=O)CCN(C)Cc1ccc(C2CCCC2)s1` was tested, and the “% Inhibition” value was -3% and the Z score was 0.47. With `Cc1cc(CC(=O)N[C@@H](C)c2nc(CC(C)C)no2)on1` the “% Inhibition” value was -8% and the Z score was 1.51. With `CCN(CC(=O)Nc1ccc(NC(C)=O)cc1)S(=O)(=O)[C@@H](C)C(F)(F)F` the “% Inhibition” value was -9% and the Z score was 1.12. With `CC(C)n1cc(NC(=O)Cn2cc(-c3nccc(C(F)(F)F)n3)cn2)nn1` the “% Inhibition” value was -10% and the Z score was 1.48. In the case of `CC1CN(S(=O)(=O)c2ccc3c(c2)CCO3)C(C)CO1` (centres undefined), the “% Inhibition” value is reported as -2% and the Z score is reported as 0.4. In the case of `COc1cc(-c2nc(COc3ccc(C(N)=O)cc3)c(C)o2)cc2c1OCO2`, the “% Inhibition” value is reported as 8% and the Z score is reported as -1.08. `Cc1c(C(=O)N2CCN(C)C3(CCN(C)CC3)C2)nnn1Cc1ccccc1` was tested, and the “% Inhibition” value was -13% and the Z score was 1.3. For `Cc1cc(O)cc(=O)n1CCc1c[nH]c2ccc(O)cc12`, the “% Inhibition” value was -3% and the Z score was 0.33. `Cc1nc(N2CCCC2)c2c(C(=O)NCc3ccc4c(c3)OCO4)c(C)oc2n1` was tested, and the “% Inhibition” value was 4% and the Z score was -0.62. With `CCc1noc([C@H](C)NS(=O)(=O)c2cnn(CC)c2)n1` the “% Inhibition” value was -15% and the Z score was 1.47. `CCCNC(=O)[C@H](C)NC(=O)c1cc(F)cc(F)c1` was tested, and the “% Inhibition” value was -44% and the Z score was 5.11. In the case of `O=C(COc1ccccc1)N1CCc2n[nH]c(=O)cc2C1`, the “% Inhibition” value is reported as 2% and the Z score is reported as -0.26. For `c1cncc(COc2cccc(-c3noc(Cc4ccn[nH]4)n3)c2)c1`, the “% Inhibition” value was -5% and the Z score was 0.96. With `Cn1cc(CN[C@@H]2C[C@H](Cn3cc(C4CC4)nn3)[C@@H](O)[C@H]2O)c2ccccc21` the “% Inhibition” value was 26% and the Z score was -2.92. For `CN1C[C@@H]2CCCN3CCC[C@@H]([C@H]23)[C@H]1CCCC(=O)NCc1ccccc1`, the “% Inhibition” value was -2% and the Z score was 0.34. With `Cc1occc1CN(C)C(=O)[C@H]1CCO[C@@H]1c1cccnc1` the “% Inhibition” value was 4% and the Z score was -0.68. For `CCC(=O)Nc1cc(-c2ccccc2)nn(CC(=O)N2CCc3ccccc32)c1=O`, the “% Inhibition” value was 2% and the Z score was -0.33. `CN1CCCC[C@@H]1CCC(=O)NCCc1nc(-c2ccccc2)no1` was tested, and the “% Inhibition” value was -19% and the Z score was 2.02. With `Cc1ccc(OCC(=O)Nc2sc3c(c2C#N)CCCC3)c(-n2cnnc2)c1` the “% Inhibition” value was -5% and the Z score was 0.64. In the case of `CNC(=O)NC1CN(C(=O)C2(c3c(F)cccc3F)CCC2)C1`, the “% Inhibition” value is reported as -1% and the Z score is reported as 0.17. For `CCOC(=O)[C@H]1CCCN(C(=O)c2nc(CCc3ccccc3)n(-c3ccccc3)n2)C1`, the “% Inhibition” value was -2% and the Z score was 0.45. With `CC(=O)Nc1ccc(S(=O)(=O)NC(C)(C)C(C)(F)F)c(F)c1` the “% Inhibition” value was -5% and the Z score was 0.96. For `COc1ccc(C)cc1[C@@H](C)OC(=O)c1ccc2nncn2c1`, the “% Inhibition” value was 2% and the Z score was -0.37. In the case of `CCOc1ccc(NC(=O)N2CCC([C@@H]3CCCO3)CC2)cn1`, the “% Inhibition” value is reported as -15% and the Z score is reported as 1.5. With `Cc1cc2c(cc1CN1CC[C@H](CNC(=O)C3CCC3)C1)OCO2` the “% Inhibition” value was -10% and the Z score was 1.04. With `CN(C)C(=O)[C@H]1C[C@H]1C(=O)Nc1ccc(Cl)c(Cl)c1` the “% Inhibition” value was -5% and the Z score was 0.72. For `CC(C)Cn1ncc2[nH]c(CC(C)(C)C)nc21`, the “% Inhibition” value was 3% and the Z score was -0.39. For `CCN1CC(C(=O)NC2CCc3nccn3C2)CC1=O` (centres undefined), the “% Inhibition” value was 2% and the Z score was -0.36. For `C=CCN(C(C)=O)c1nc(-c2c[nH]c3ccccc23)cs1`, the “% Inhibition” value was -3% and the Z score was 0.47. `Clc1ccc([C@@H]2CN(c3noc(C4CC4)n3)CCO2)cc1` was tested, and the “% Inhibition” value was -10% and the Z score was 1.41. For `Cc1cnc(C)c(-c2cc(O)c3c(c2)CN(c2ncnc4[nH]ccc24)CCO3)n1`, the “% Inhibition” value was -6% and the Z score was 0.58. With `O=C1CN(C(=O)Cn2nnc3ccccc32)c2ccccc2N1` the “% Inhibition” value was -12% and the Z score was 1.37. In the case of `COc1cc(CN(C)CCC(=O)N(C)OC)sn1`, the “% Inhibition” value is reported as -10% and the Z score is reported as 1.6. With `Cc1noc(C2CN(Cc3ccc(Br)cc3)C2)n1` the “% Inhibition” value was -2% and the Z score was 0.35. `CN(C)S(=O)(=O)c1ccc(NC2CCC3(CC2)OCCO3)c(S(N)(=O)=O)c1` was tested, and the “% Inhibition” value was 2% and the Z score was -0.19. With `CO[C@H]1[C@@H]2CC[C@H]1CN(C(=O)NCCc1csc(-c3ncccn3)n1)C2` the “% Inhibition” value was 0% and the Z score was -0.04. For `CCOc1ccc(C(=O)NCc2sc(-c3ccccc3Cl)nc2C)cc1`, the “% Inhibition” value was 5% and the Z score was -1.04. With `Cc1cc(C)nc(CN(C)C(=O)c2cnc(NC(C)C)nc2)c1` the “% Inhibition” value was -15% and the Z score was 1.36. For `CCOC(=O)c1c(C)[nH]c(-c2ccccc2)c1-c1ccccc1`, the “% Inhibition” value was -9% and the Z score was 1.57. In the case of `CCCCN(CCC(=O)Nc1nnc(-c2ccc(C)cc2)s1)C(=O)C1CCC1`, the “% Inhibition” value is reported as -14% and the Z score is reported as 1.59. `O=C(O)C1CCN(C(=O)Nc2ccnc(Oc3ccccc3Cl)c2)CC1` was tested, and the “% Inhibition” value was -13% and the Z score was 2.52. For `Cc1nc(C(=O)NC[C@H]2CC3c4ccccc4C2c2ccccc23)n(C)n1`, the “% Inhibition” value was -1% and the Z score was 0.12. `Cc1nc([C@H]2CCOC2)cc(N2CCN(C3CCN(C)CC3)CC2)n1` was tested, and the “% Inhibition” value was 7% and the Z score was -0.92. `CC(C)[C@@H](C(=O)NCc1nnc(C2CC2)o1)N1CCCCC1` was tested, and the “% Inhibition” value was -15% and the Z score was 2.74. `CC(=O)N1C[C@@H]2CCCN3CCC[C@@H]([C@H]23)[C@H]1CCCC(=O)NCc1cc(F)cc(F)c1` was tested, and the “% Inhibition” value was 2% and the Z score was -0.41. `CN=C(NCC(C)C)NC[C@H](O)c1cc(OC)ccc1OC` was tested, and the “% Inhibition” value was -14% and the Z score was 1.32. With `CCS(=O)(=O)Nc1ccc(S(=O)(=O)N2CCC=C(F)C2)cc1F` the “% Inhibition” value was -13% and the Z score was 1.67. For `Cc1ccc2c(c1)cc(CN1CCn3nc(CO)cc3C1)n2C`, the “% Inhibition” value was -1% and the Z score was 0.21. In the case of `CC(C)(CN1CCOCC1)CN1CCC[C@H]1c1nc(-c2ccccn2)no1`, the “% Inhibition” value is reported as 5% and the Z score is reported as -0.61. In the case of `CCO[C@H](c1noc(-c2cc(C)no2)n1)C1CCOCC1`, the “% Inhibition” value is reported as 10% and the Z score is reported as -1.29. `Cn1nccc1NC(=O)Cn1ccc2cc(-c3ccc4c(c3)OCO4)ccc21` was tested, and the “% Inhibition” value was -4% and the Z score was 0.64. `COc1ccc(Nc2cccc(NC(=O)C3(C(F)(F)F)CCOCC3)c2)cc1` was tested, and the “% Inhibition” value was 1% and the Z score was -0.19. `O=C(CCNC(=O)C1CCN(S(=O)(=O)c2ccc(Cl)cc2)CC1)NC1CC1` was tested, and the “% Inhibition” value was -1% and the Z score was 0.16. For `C[C@]1(O)CCN(S(=O)(=O)c2cccc3c2CCCC3)C1`, the “% Inhibition” value was -1% and the Z score was 0.11. In the case of `CN1C2CCC1CN(C(=O)Nc1ccc(S(C)(=O)=O)c(C(F)F)c1)CC2` (centres undefined), the “% Inhibition” value is reported as -16% and the Z score is reported as 3.08.
